{"source": "PubChem BioAssay AID602179", "about": "(National Center for Advancing Translational Sciences (NCATS), 2012)", "note": "Out of some 390,000 compounds screened, about 360 (0.092%) were called active. Inconclusive results, whose numbers are uncertain, are shown with a selection of clear calls. Calls follow the shape of the dose curve; as a rule, active = well fitted inhibition curve with a large enough effect; inconclusive = small, poorly fitted or top-dose-only effect; inactive = no such curve, though single readings can be large or run the other way. Where the call is inconclusive, the potency comes from a doubtful curve fit. Potency is read from the fitted curve at half-maximal effect; tags tell the direction and shape of the fitted curve."}
{"molecular_target": "Isocitrate dehydrogenase [NADP] cytoplasmic (Homo sapiens) (UniProt O75874)", "assay": "qHTS for Inhibitors of mutant isocitrate dehydrogenase 1 (IDH1): qHTS; also: nearly all actives have a fitted effect of over 65% in size", "conditions": "IDH1-R132H enzyme, NADPH consumption, diaphorase/resazurin fluorescence; series mostly up to 76.6 µM", "method_in_brief": "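IDH1-R132H (0.5 ug/mL) preincubated 30 min with compound, then NADPH (0.016 mM) and alpha-KG (2 mM) added; 80 min at RT, pH 7.5. Remaining NADPH coupled via diaphorase/resazurin to fluorescence (540/590 nm); concentration-response curves normalized to no-enzyme control.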"}
{"smiles": "Cc1oc(-c2cccc(Br)c2)nc1Cn1c(SCc2cccc(F)c2)nc2cccnc21", "Potency": "inactive"}
{"smiles": "COC(=O)C1=C(C)N(C2CCCCC2)C(=O)C1", "Potency": "inactive"}
{"smiles": "O=C(NC(Nc1nc2ccc([N+](=O)[O-])cc2s1)(C(F)(F)F)C(F)(F)F)c1ccccc1", "Potency": "active: 9.27 µM"}
{"smiles": "O=C(NC1CCCCC1)C(c1ccccc1)N(C(=O)Cc1ccsc1)c1ccccc1", "note": "(configuration not stated)", "Potency": "inconclusive: 1.04 µM [inhibitor, full curve]"}
{"smiles": "CCOC(=O)COc1cc(-n2c(=S)[nH]c3cc(OC)c(OC)cc3c2=O)c(Cl)cc1Cl", "Potency": "inconclusive: 46.5 µM [inhibitor, partial curve, poor fit]"}
{"smiles": "O=C1/C(=C\\c2ccc(O)c(O)c2)SC(=S)N1Cc1ccccc1", "Potency": "inconclusive: 52.1 µM [inhibitor, partial curve, poor fit]"}
{"smiles": "COc1ccccc1Nc1nc(-c2sc(NC(=O)c3ccccc3)nc2C)cs1", "Potency": "inconclusive: 63.1 µM [inhibitor, single point]"}
{"smiles": "CN(C)C(=O)C(CCN1CCC(O)(c2ccc(Cl)cc2)CC1)(c1ccccc1)c1ccccc1", "Potency": "inactive"}
{"smiles": "Cc1cccc(NC(c2ccc(C)s2)c2ccc3ccc(C)nc3c2O)n1", "note": "(configuration not stated)", "Potency": "inactive"}
{"smiles": "N#CC1=C(N)NC(SCC(=O)Nc2ccc(Br)cc2)=C(C#N)C12CCCCC2", "Potency": "inconclusive: 13.1 µM [inhibitor, partial curve, poor fit]"}
{"smiles": "Cc1nn(-c2ccc(F)cc2)c2nc(N)c(C#N)c(-c3ccc(O)c(O)c3)c12", "Potency": "inconclusive: 50.1 µM [inhibitor, partial curve, poor fit]"}
{"smiles": "Fc1ccc(-c2n[nH]c(=S)n2Cc2ccccc2)cc1", "Potency": "inactive"}
{"smiles": "COc1cc(/C=C2\\SC(=S)N(NC(=O)c3ccccc3O)C2=O)ccc1O", "Potency": "inconclusive: 18.5 µM [inhibitor, partial curve]"}
{"smiles": "O=C(O)c1cccc(S(=O)(=O)N2CCN(C(c3ccccc3)c3ccccc3)CC2)c1", "Potency": "inconclusive: 14.7 µM [inhibitor, full curve]"}
{"smiles": "Cc1cc(NS(=O)(=O)c2ccccc2)cc(Cl)c1O", "Potency": "inactive"}
{"smiles": "COc1ccc(C)cc1N(C)C(=O)c1c2c(nc3ccccc13)C(=O)N(C1CCCCC1)C2", "Potency": "inconclusive: 50.1 µM [inhibitor, partial curve, poor fit]"}
{"smiles": "Cc1ccc2c(c1)c1c3n2CCN(C(=O)CCl)C3CCC1", "note": "(configuration not stated)", "Potency": "active: 46.5 µM"}
{"smiles": "CCCc1c(-c2ccc(O)cc2)nn(-c2ccc(O)cc2)c1-c1ccc(O)cc1", "Potency": "inconclusive: 50.1 µM [inhibitor, partial curve, poor fit]"}
{"smiles": "CC(Sc1cn(CCNC(=O)c2ccccc2F)c2ccccc12)c1ccccc1", "note": "(configuration not stated)", "Potency": "inconclusive: 50.1 µM [inhibitor, single point]"}
{"smiles": "COC(=O)c1ccc(NC(=O)CSc2ncc3c(n2)-c2cc(Cl)ccc2N(Cc2ccccc2)S3(=O)=O)cc1", "Potency": "inconclusive: 50.1 µM [inhibitor, single point]"}
{"smiles": "N#C/C(=C\\c1cccc([N+](=O)[O-])c1)C(=O)NCc1ccc(Cl)cc1", "Potency": "inconclusive: 52.1 µM [inhibitor, single point]"}
{"smiles": "CCOC(=O)C1=C(C)OC2(O)c3ccccc3C(=O)C12O", "note": "(configuration not stated)", "Potency": "inconclusive: 16.5 µM [inhibitor, single point]"}
{"smiles": "Cn1c2ccccc2c(=O)c2c(=O)n(C3CCCCCC3)c(C3CCCCC3)nc21", "Potency": "active: 9.27 µM"}
{"smiles": "CCOC(=O)c1c(N)c2cc([N+](=O)[O-])cnc2n1C", "Potency": "inactive"}
{"smiles": "O=C(O)CCN1C(=O)C2C3CC(C2C1=O)C1C(c2ccccc2)c2sc(=O)n(-c4ccccc4)c2SC31", "note": "(configuration not stated)", "Potency": "inconclusive: 52.1 µM [inhibitor, single point]"}
{"smiles": "Cc1ccccc1N=C1NN=C(c2ccccc2F)CS1", "Potency": "inconclusive: 58.5 µM [inhibitor, single point]"}
{"smiles": "Cc1ccccc1N(C(=O)Cc1c[nH]c2ccccc12)C(C(=O)NC1CCCCC1)c1ccco1", "note": "(configuration not stated)", "Potency": "inconclusive: 26.1 µM [inhibitor, partial curve]"}
{"smiles": "COc1ccc(C2C=C(c3ccccc3)Nc3nc(NS(=O)(=O)c4ccc(Cl)cc4)nn32)cc1", "note": "(configuration not stated)", "Potency": "inconclusive: 50.1 µM [inhibitor, single point]"}
{"smiles": "Cc1cccc2c1N(CCOc1ccc(C(C)(C)C)cc1)C(=O)C2=O", "Potency": "inconclusive: 52.1 µM [inhibitor, partial curve]"}
{"smiles": "COc1cc(/C=C2\\C(=N)N3N=C(S(C)(=O)=O)SC3=NC2=O)ccc1OS(=O)(=O)c1ccc(C)cc1", "Potency": "inconclusive: 58.5 µM [inhibitor, single point]"}
{"smiles": "Cc1cccc(N2C(=O)C(O)=C(C(=O)c3cccs3)C2c2ccc(C(C)C)cc2)n1", "note": "(configuration not stated)", "Potency": "inconclusive: 50.1 µM [inhibitor, single point]"}
{"smiles": "COc1cc(C)c2c(c1C=O)Oc1c(c(C)c(O)c3c1C(O)OC3=O)OC2=O", "note": "(configuration not stated)", "Potency": "inconclusive: 50.1 µM [inhibitor, single point]"}
{"smiles": "CCN(CC)c1nc(N)c2c(N)n(-c3ccccc3C)c(=S)c(C#N)c2c1C#N", "Potency": "inconclusive: 58.5 µM [inhibitor, single point]"}
{"smiles": "O=C(Nc1ccccc1)OC(CN1CCCCC1)C(F)(F)F", "note": "(configuration not stated)", "Potency": "inactive"}
{"smiles": "CCOc1ccc(NS(=O)(=O)c2ccc(-c3cc(C)no3)s2)cc1", "Potency": "inactive"}
{"smiles": "COc1ccc(CCn2cc3c(c2-c2ccc(Br)cc2)c(=O)n(C)c(=O)n3C)cc1OC", "Potency": "inconclusive: 50.1 µM [inhibitor, single point]"}
{"smiles": "CC(=C\\c1ccccc1)/C=C1/SC(=S)N(CCCC(=O)O)C1=O", "Potency": "inconclusive: 44.7 µM [inhibitor, partial curve, poor fit]"}
{"smiles": "CC(=O)Nc1nonc1-c1nnc(SCc2ccc(F)cc2Cl)n1C", "Potency": "inactive"}
{"smiles": "COc1ccc(CNCC(O)(c2ccc(Cl)cc2)c2ccc(Cl)cc2)cc1OC", "Potency": "inactive"}
{"smiles": "COc1ccc(N(C(=O)c2snc(C(N)=O)c2N)C(C(=O)NC2CCCC2)c2ccc(F)cc2)c(OC)c1", "note": "(configuration not stated)", "Potency": "inconclusive: 20.7 µM [inhibitor, partial curve]"}
{"smiles": "FC(F)(F)c1ccccc1NC(=S)N1CCN(Cc2ccc3c(c2)OCO3)CC1", "Potency": "inactive"}
{"smiles": "CCOC(=O)c1c(-c2ccc(F)cc2)csc1NC(=O)CCN1CCOCC1", "Potency": "inactive"}
{"smiles": "CO/N=C(\\Cn1ncc(N2CCCC2)c(Br)c1=O)c1ccc(Cl)cc1", "Potency": "inactive"}
{"smiles": "Cn1ncc2c(Nc3cccc(Cl)c3)nc(Nc3cccc(Cl)c3)nc21", "Potency": "inconclusive: 16.5 µM [inhibitor, full curve]"}
{"smiles": "O=C(NC(c1ccc(Cl)cc1)c1cc(Cl)c2cccnc2c1O)c1cccnc1", "note": "(configuration not stated)", "Potency": "inactive"}
{"smiles": "N#CC1=C(N)C(C#N)(C#N)C(c2cccnc2)C2COCC=C12", "note": "(configuration not stated)", "Potency": "inconclusive: 20.7 µM [inhibitor, full curve]"}
{"smiles": "COc1ccccc1CNC(=O)CSc1ncc2c(n1)-c1cc(Cl)ccc1N(Cc1ccccc1)S2(=O)=O", "Potency": "inconclusive: 50.1 µM [inhibitor, single point]"}
{"smiles": "Cc1ccc(-n2nnnc2CNC(=O)c2ccccc2)cc1C", "Potency": "inactive"}
{"smiles": "CCOc1ccc(/C=N/OCC(=O)NC(c2ccccc2)c2ccccc2)cc1", "Potency": "inactive"}
{"smiles": "CCC(CO)Oc1cc(NCc2ccccc2O)c2ncn(C(C)C)c2c1", "note": "(configuration not stated)", "Potency": "inconclusive: 50.1 µM [inhibitor, single point]"}
{"smiles": "COc1cccc(N(C(=O)c2ccco2)c2nc(-c3sc(NC(=O)c4ccco4)nc3C)cs2)c1", "Potency": "inconclusive: 50.1 µM [inhibitor, partial curve, poor fit]"}
{"smiles": "CCCCC[C@H](O)/C=C/C1C(=O)C=C[C@H]1C/C=C\\CCCC(=O)OC", "note": "(some centres not stated)", "Potency": "inconclusive: 25.1 µM [inhibitor, single point]"}
{"smiles": "C=CCC[C@H](Cc1ccc(F)cc1)C(=O)OC[C@H](Cc1c[nH]c2ccccc12)NC(=O)[C@H](CC=C)CC(=O)NCCO", "Potency": "inconclusive: 50.1 µM [inhibitor, single point]"}
{"smiles": "O=S(Cc1ccccc1)c1ccccc1", "note": "(configuration not stated)", "Potency": "inactive"}
{"smiles": "Cc1nc(NC(C)c2ccccc2)sc1C(=O)Nc1ccccc1", "note": "(configuration not stated)", "Potency": "inactive"}
{"smiles": "COc1cc(SC#N)ccc1N=Cc1c(C)[nH]n(-c2ccc(C)cc2)c1=O", "Potency": "inconclusive: 50.1 µM [inhibitor, single point]"}
{"smiles": "C#CCNC(=O)C(C)c1ncc(C(F)(F)F)cc1Cl", "note": "(configuration not stated)", "Potency": "inactive"}
{"smiles": "C=CCC1(C#N)C(=S)NC(C)=C(C(=O)OCC)C1c1ccccc1", "note": "(configuration not stated)", "Potency": "inconclusive: 58.5 µM [inhibitor, single point]"}
{"smiles": "CC(C)c1nn2c(=O)cc(COC(=O)c3ccccc3NC(=O)c3cccs3)nc2s1", "Potency": "inactive"}
{"smiles": "Cc1cccc(COCC(Cc2ccccc2)N2CCN(C(=O)c3ccc(C(F)(F)F)cc3)CCC2=O)c1", "note": "(configuration not stated)", "Potency": "inactive"}
{"smiles": "COC(=O)c1ccc2c(=O)n(Cc3ccc(C(=O)NCCCN4CCC(C)CC4)cc3)c(=S)[nH]c2c1", "Potency": "inactive"}
{"smiles": "COc1ccc(N(C(=O)/C=C\\C(=O)Nc2ccc(Cl)cc2)C(C(=O)NCc2ccco2)c2ccc(C)cc2)cc1", "note": "(configuration not stated)", "Potency": "inconclusive: 44.7 µM [inhibitor, single point]"}
{"smiles": "O=[N+]([O-])c1cc(S(=O)(=O)N2CCCCCC2)ccc1F", "Potency": "active: 46.5 µM"}
{"smiles": "CCOC(=O)C1CCN(c2cc3c(cc2NC(=O)c2ccccc2OCC)n(C)c(=O)n3C)CC1", "Potency": "inconclusive: 46.5 µM [inhibitor, partial curve]"}
{"smiles": "Cn1c(=O)c2c(-c3ccc(Br)cc3)n(CCc3ccccc3)cc2n(C)c1=O", "Potency": "inconclusive: 44.7 µM [inhibitor, single point]"}
{"smiles": "NC(=O)C1CCN(c2ncnc3c2c(-c2ccccc2)cn3-c2ccccc2)CC1", "Potency": "inconclusive: 50.1 µM [inhibitor, single point]"}
{"smiles": "N#C/C(=N\\Nc1cccc(F)c1)C(=O)C1CC1", "Potency": "inconclusive: 58.5 µM [inhibitor, single point]"}
